Here are results for 89 variants from the RNAGym collection of RNA variant scans (doi:10.1073/pnas.2313332121).

Variants at the floor of the assay are shown more often than the library holds them.

B1: TPR 5TU (parent)
chain: GGAUCUUCUCGAUCUAACAAAAAAGACAAAUCUGCCACAAAGCUUGAGAGCAUCUUCGGAUGCAGAGGCGGCAGCCUUCGGUGGCGCGAUAGCGCCAACGUUCUCAACUAUGACACGCAAAACGCGUGCUCCGUUGAAUGGAGUUUAUCAUG

Variants of B1 are the subject of this data set. Put plainly: polymerase ribozyme fitness, log enrichment relative to wild type (log ratio); higher = more active; in vitro selection for triplet polymerase activity. In outline:
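After PCR construction and transcription, each subunit's mutant library from a heterodimeric triplet polymerase ribozyme was annealed with a biotinylated primer, the partner subunit and triplets. Incubation was frozen, at −7 °C, and extended constructs were gel-excised, bound to streptavidin beads and amplified by RT-PCR, in one selection round done in triplicate. Fitness is the logarithm of a genotype's enrichment divided by that of the wild type, from inverse-variance-weighted replicate averages of Illumina-sequenced inputs and outputs. The base of the logarithm is 2, and genotypes needed ≥10 input reads and ≥1 read per output.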
As to U111A G143C, the “polymerase ribozyme fitness (log ratio)” value was at most -4.2.

In the case of U102A G128U A138U, the “polymerase ribozyme fitness (log ratio)” value is at most -4.2. Then G141U U146A, with 0.37; and U146C A150U, with 0.851; and A137U U144A, with at most -4.2. As to C114A C132U G133C, the “polymerase ribozyme fitness (log ratio)” value was -3.96.

Take G141A A147C: the “polymerase ribozyme fitness (log ratio)” value is -3.63.

For A106C G141C C149A, the “polymerase ribozyme fitness (log ratio)” value was at most -4.2. For A115U C118A, the “polymerase ribozyme fitness (log ratio)” value is -1.83.

A107G C132G G140C U148C: the “polymerase ribozyme fitness (log ratio)” value is at most -4.2.

G152U: the “polymerase ribozyme fitness (log ratio)” value is -2.19. As for G152C, the figure is -2.58; as for G152A, -1.77. A119U A121G U135C U146A A150G: the “polymerase ribozyme fitness (log ratio)” value is -3.77. For C108U C114U, the “polymerase ribozyme fitness (log ratio)” value is -4.06.

For the variant U102A C114U A115G A120U, the “polymerase ribozyme fitness (log ratio)” value is -3.62. In the case of A113C G126A C129A C131U A137C, the “polymerase ribozyme fitness (log ratio)” value was at most -4.2. Turning to G136A A137U G141U A142G, the “polymerase ribozyme fitness (log ratio)” value is at most -4.2.

Turning to G133U U148G, the “polymerase ribozyme fitness (log ratio)” value was -4.1.

As to U134A A142G U144G, the “polymerase ribozyme fitness (log ratio)” value is -2.83.

In the case of G117U U135C, the “polymerase ribozyme fitness (log ratio)” value is -2.36. Take A107C G136U: the “polymerase ribozyme fitness (log ratio)” value was at most -4.2. With A110C A121U, the “polymerase ribozyme fitness (log ratio)” value was -4.04. As to A110G C149G, the “polymerase ribozyme fitness (log ratio)” value is -3.83. G112A U148C: the “polymerase ribozyme fitness (log ratio)” value was -4.13. Take A106U U135A A150U: the “polymerase ribozyme fitness (log ratio)” value was -1.22. Consider U130G U135G, for which the “polymerase ribozyme fitness (log ratio)” value is at most -4.2.

Consider G136C U146C, for which the “polymerase ribozyme fitness (log ratio)” value was -2.93.

For U104G C118A A122C, the “polymerase ribozyme fitness (log ratio)” value is -2.35.

With U104G A142G G152U, the “polymerase ribozyme fitness (log ratio)” value was -3.73. In the case of A138C U144G, the “polymerase ribozyme fitness (log ratio)” value is -3.7. Then U134A, with -2.25. Regarding U134C, the “polymerase ribozyme fitness (log ratio)” value was 0.0692. For U134G, the “polymerase ribozyme fitness (log ratio)” value is -2.37.

In the case of C105G C149G A150C, the “polymerase ribozyme fitness (log ratio)” value is at most -4.2. U102G A107G G112U: the “polymerase ribozyme fitness (log ratio)” value was at most -4.2. For C125A U148A, the “polymerase ribozyme fitness (log ratio)” value is -3.93.

Turning to A110U C114G A115C U134A G136C, the “polymerase ribozyme fitness (log ratio)” value is at most -4.2. Regarding U111A G124A U135C, the “polymerase ribozyme fitness (log ratio)” value was -3.76. As for A120U U135C, the “polymerase ribozyme fitness (log ratio)” value was -2.85. As for C103U G140C, the figure is at most -4.2. Consider A147G, for which the “polymerase ribozyme fitness (log ratio)” value was -0.913. Consider A147U, for which the “polymerase ribozyme fitness (log ratio)” value was determined as 1.1. Take A147C: the “polymerase ribozyme fitness (log ratio)” value amounted to 0.176.

For G124U G140A, the “polymerase ribozyme fitness (log ratio)” value was -4. In the case of U102G U127C, the “polymerase ribozyme fitness (log ratio)” value is -4.17. Then G143A U145A, with -2.03; and C114U A137C, with -3.52. With C114A U134G G143C, the “polymerase ribozyme fitness (log ratio)” value was at most -4.2. For the variant A107G A113C, the “polymerase ribozyme fitness (log ratio)” value is at most -4.2. As for C103A C116U G128A C149A, the figure is at most -4.2; as for U134G A137G A150C, at most -4.2; as for C123A G141C, 0.333. Then C125G A142C, with -4.01; and G126A U127G C149G, with at most -4.2; and C105U G124U, with -0.374. As for C108G U144A, the figure is at most -4.2; as for A115U G136A, -1.18; as for U109G A110C, at most -4.2.

Regarding C108A A115G G124C G133U, the “polymerase ribozyme fitness (log ratio)” value is at most -4.2. As to C108U G143C, the “polymerase ribozyme fitness (log ratio)” value is at most -4.2. Take U102G A113G G133U: the “polymerase ribozyme fitness (log ratio)” value is at most -4.2.

For the variant A138C A142G, the “polymerase ribozyme fitness (log ratio)” value is -3.66. For G140A G141A, the “polymerase ribozyme fitness (log ratio)” value is -3.15.

For the variant A115C U139A A142U, the “polymerase ribozyme fitness (log ratio)” value was at most -4.2. As for G117U G143A, the figure is -0.982; as for U127C U139C U151G, at most -4.2; as for A115C C132U G141C, at most -4.2. Take G143C U146A: the “polymerase ribozyme fitness (log ratio)” value is -3.65. Then U127G G140A, with -4.15.

On to C118U A119U, for which the “polymerase ribozyme fitness (log ratio)” value was -0.842. In the case of U144A U145A, the “polymerase ribozyme fitness (log ratio)” value is -0.541. Then A107C A142C, with -4.05; and C116A C131A, with at most -4.2; and U102G G141C, with -3.94. Take A119U U134A: the “polymerase ribozyme fitness (log ratio)” value was -2.99. For the variant U146A U151A, the “polymerase ribozyme fitness (log ratio)” value is at most -4.2. Turning to G124U U134G, the “polymerase ribozyme fitness (log ratio)” value was -2.98. Then G133C U144C C149U, with -3.98; and A121G G143A A147U, with -1.46. G112A C116U G141U: the “polymerase ribozyme fitness (log ratio)” value is at most -4.2. Turning to C125U G143U, the “polymerase ribozyme fitness (log ratio)” value is -3.2.

Regarding U139A G143A, the “polymerase ribozyme fitness (log ratio)” value was at most -4.2. As for C131A A138C U139G, the figure is -3.67; as for U135G A137U U139A U151G, at most -4.2.

With C114U U139C, the “polymerase ribozyme fitness (log ratio)” value is -3.63. On to C114U G124U, for which the “polymerase ribozyme fitness (log ratio)” value is -3.13.

Consider G133C U151C, for which the “polymerase ribozyme fitness (log ratio)” value was at most -4.2. As for U102A U109G G117A, the figure is at most -4.2.
